This note sets out measurements from PubChem BioAssay AID1745853 (National Center for Advancing Translational Sciences (NCATS), 2022).

This is one part of the list. These are further read-outs of the screen, such as a control signal, another cell line or another target. No call is given for them.

Holding throughout (test): Primary Screen for Target Class Profiling of Small Molecule Inhibitors of Methyltransferases
The target of assay [1] is Glycine N-methyltransferase (Homo sapiens) (UniProt Q14749). Conditions: purified enzyme, MTase-Glo SAH luminescence; measured here: GNMT inhibition; at 40 µM; stronger effect = lower value. The gist of the method: (§1)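 Each enzyme was assayed with SAM and its substrate. SAH formation detected by MTase-Glo luminescence; single-point 40 uM screen[…].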
Assay [2] addresses Guanidinoacetate N-methyltransferase (Homo sapiens) (UniProt Q14353). Conditions: purified enzyme, MTase-Glo SAH luminescence; measured here: GAMT inhibition; at 40 µM; stronger effect = lower value. Summed up: as §1
For assay [3], the target named is Histamine N-methyltransferase (Homo sapiens) (UniProt P50135). The settings on record: purified enzyme, MTase-Glo SAH luminescence; measured here: HNMT inhibition; at 40 µM; stronger effect = lower value. The gist of the method:
as §1

Assay [4] has as its target Nicotinamide N-methyltransferase (Homo sapiens) (UniProt P40261). The settings on record: purified enzyme, MTase-Glo SAH luminescence; measured here: NNMT inhibition; at 40 µM; stronger effect = lower value. Summed up:
as §1

Assay [5] deals with Phenylethanolamine N-methyltransferase (Homo sapiens) (UniProt P11086). The settings on record: purified enzyme, MTase-Glo SAH luminescence; measured here: PNMT inhibition; at 40 µM; stronger effect = lower value. Summed up: as §1
% is scaled to controls: 0 for no effect and ±100 for the full control effect.

On to `Cc1ccc(CNC(=O)c2ccc3c(=O)nc4c(-c5ccc(C)cc5)n[nH]n4c3c2)cc1`, for which the activity change, negative = inhibition in assay [1] is -14%; in assay [2], 0%; in assay [3], -4.14%; in assay [4], -5.78%; in assay [5], -6.85%.

`CCC(C)NC(=O)c1ccc2c(=O)n(CCC(C)C)c3nn(Cc4ccccc4Cl)c(=O)n3c2c1` (stereo not drawn): the activity change, negative = inhibition in assay [1] is -2.41%; in assay [2], 2.81%; in assay [3] it was 0.897%; in assay [4] it was -2.46%; in assay [5], -3.7%.

`CCOC(=O)c1cc2n(n1)CC(C)(C(=O)NC1CCC(C)CC1)N(Cc1ccccc1C)C2=O` (stereo not drawn): the activity change, negative = inhibition in assay [1] is 1.36%; in assay [2] it was 0.789%; in assay [3], -3.82%; in assay [4] it was -2.8%; in assay [5], -1.37%.

With `Cc1ccc(C)c(N2CCN(S(=O)(=O)c3ccc4[nH]c(=O)[nH]c4c3)CC2)c1`, the activity change, negative = inhibition in assay [1] is 12.4%; in assay [2] it was 0%; in assay [3] it was 10.9%; in assay [4], -1.15%; in assay [5] it was 5.49%.

In the case of `Cc1ccc(NC(=O)CCc2nnc3n(CCc4ccccc4)c(=O)c4ccccc4n23)cc1C`, the activity change, negative = inhibition in assay [1] was 4.23%; in assay [2] it was 0%; in assay [3] it was 9.95%; in assay [4], 4.64%; in assay [5], 1.93%.

Take `COC(=O)c1ccnc(-c2cc(C(=O)NCCc3ccccc3)ccn2)c1`: the activity change, negative = inhibition was 4.75% in assay [1]; 5.71% in assay [2]; 4.22% in assay [3]; -9.77% in assay [4]; -2.33% in assay [5].

For the compound `CC(=O)OC/C(=C/C(=O)O)CC[C@@H]1C(CO)=CC[C@@H]2C(C)(C)CCC[C@@]12C`, the activity change, negative = inhibition in assay [1] was 0%; in assay [2] it was -3.08%; in assay [3] it was 1.84%; in assay [4] it was -19%; in assay [5] it was -3.4%.

As to `NC(=O)c1nc(Nc2ccccc2)sc1NC(=O)C1CCCCC1`, the activity change, negative = inhibition in assay [1] is -4.58%; in assay [2] it was -15%; in assay [3], 1.61%; in assay [4], -29.8%; in assay [5], -5.79%.

As to `CCCn1c(=O)c2ccc(C(=O)NC(C)C)cc2n2c(=O)n(CC(=O)c3ccc(Cl)cc3)nc12`, the activity change, negative = inhibition in assay [1] amounted to 2.29%; in assay [2], 0.673%; in assay [3], 7.7%; in assay [4] it was 1.62%; in assay [5], 2.61%.

In the case of `CN(Cc1ccccc1)S(=O)(=O)c1ccc2c(c1)n(C)c(=O)n2C`, the activity change, negative = inhibition in assay [1] is -3.57%; in assay [2] it was 0.938%; in assay [3] it was -1.11%; in assay [4] it was 5.68%; in assay [5] it was -2.46%.

As for `CC1(C(=O)NC2CCCCCC2)Cn2c(ccc2-c2ccco2)C(=O)N1Cc1ccccc1F` (stereo not drawn), the activity change, negative = inhibition in assay [1] is -5.83%; in assay [2], 4.83%; in assay [3], -2.39%; in assay [4] it was -13.3%; in assay [5] it was -2.56%.

With `O=C(O)C1CC2(CCN(C(=O)CCCn3ccnc3)CC2)CN1` (stereo not drawn), the activity change, negative = inhibition in assay [1] was -5.42%; in assay [2] it was -7.35%; in assay [3] it was -3.86%; in assay [4], -7.59%; in assay [5], -5.38%.

With `Cc1ccc(Cl)cc1N1CCN(S(=O)(=O)c2cc3[nH]c(=O)[nH]c3cc2Br)CC1`, the activity change, negative = inhibition in assay [1] is 0.787%; in assay [2] it was 5.86%; in assay [3] it was 4.16%; in assay [4] it was 11.7%; in assay [5], -0.839%.

For the compound `O=C(Cn1nc2n(Cc3ccccc3)c(=O)c3ccccc3n2c1=O)Nc1ccccc1F`, the activity change, negative = inhibition in assay [1] was -2.11%; in assay [2], 5.34%; in assay [3] it was 0.98%; in assay [4], 1.3%; in assay [5] it was 0.741%.

In the case of `Clc1ccc2ncc(-c3cccc(NC4CCNC4)n3)n2c1` (stereo not drawn), the activity change, negative = inhibition in assay [2] is 3.14%; in assay [4], -14.7%; in assay [5], -3.95%.

As to `CCc1cc2c(cc3n2CC(C)(C(=O)NC2CCCCC2)N(Cc2ccc(OC)cc2)C3=O)s1` (stereo not drawn), the activity change, negative = inhibition in assay [1] is -10.7%; in assay [2], 0.3%; in assay [3], -9.58%; in assay [4] it was -7.28%; in assay [5], -10.3%.

Turning to `CCc1c(C)[nH]c2c1C(=O)C(CN1CCOCC1)CC2` (stereo not drawn), the activity change, negative = inhibition is -22% in assay [1]; 9.62% in assay [2]; 6.47% in assay [3]; -6.13% in assay [4]; -4.42% in assay [5].

As for `O=C(CC1CCN(C(=O)c2ccc(F)cc2)C1)NCc1ccccc1` (stereo not drawn), the activity change, negative = inhibition is -6.66% in assay [1]; -13.9% in assay [2]; -3.54% in assay [3]; -14.5% in assay [4]; -9.69% in assay [5].

As for `Cc1ccc(N(C)C(=O)Cn2c(=O)oc3cc(S(=O)(=O)N4CC(C)CC(C)C4)ccc32)cc1` (stereo not drawn), the activity change, negative = inhibition in assay [1] was -5.8%; in assay [2], 0%; in assay [3] it was 9.72%; in assay [4], 9.34%; in assay [5] it was 4.28%.

Regarding `COc1cc(NC(=O)c2cccc(-n3cc(NC(=O)Nc4cccc(C)c4)cn3)c2)cc(OC)c1OC`, the activity change, negative = inhibition in assay [1] is 0.694%; in assay [2], 9.44%; in assay [3], -9.32%; in assay [4] it was -8.18%; in assay [5], 2.61%.

For the compound `NC(=O)CNCCC(c1ccccc1)c1ccccc1`, the activity change, negative = inhibition in assay [1] was 8.71%; in assay [2], 15.8%; in assay [3], 13.1%; in assay [4], -3.48%; in assay [5], 3.04%.

Regarding `CCCn1c(=O)c2ccc(Cl)cc2n2c(=O)n(Cc3cccc(OC)c3)nc12`, the activity change, negative = inhibition stood at 2.83% in assay [1]; 3.91% in assay [2]; 12.2% in assay [3]; 1.96% in assay [4]; 4.53% in assay [5].

Regarding `CCn1nc(CNC(=O)Cc2ccccc2F)c2ccccc21`, the activity change, negative = inhibition came to 3.87% in assay [1]; 1.45% in assay [2]; 3.46% in assay [3]; 1.33% in assay [4]; 4.39% in assay [5].

As to `O=c1[nH]c2ccc(S(=O)(=O)Nc3cccc(F)c3)cc2[nH]1`, the activity change, negative = inhibition in assay [1] was 3.12%; in assay [2], 0%; in assay [3], 3.06%; in assay [4], 0.958%; in assay [5], -8.95%.

As to `C=CC(=O)Nc1cc(Nc2nccc(-c3cn(C)c4ccccc34)n2)c(OC)cc1N(C)CCN(C)C`, the activity change, negative = inhibition in assay [1] is -23.7%; in assay [2], 5.85%; in assay [3] it was -33.8%; in assay [4] it was -13%; in assay [5], -17.4%.

Consider `CCC(NS(=O)(=O)c1ccc(C(=O)NC2CC2)cc1)c1cnn(C)c1` (stereo not drawn), for which the activity change, negative = inhibition is -4.51% in assay [1]; -4.91% in assay [2]; -2.14% in assay [3]; -4.42% in assay [4]; -10.9% in assay [5].

As for `CCO/C([O-])=N/c1c[n+](N2CCOCC2)no1`, the activity change, negative = inhibition in assay [1] was 10.1%; in assay [2], 13.7%; in assay [3], 5.25%; in assay [4] it was -6.76%; in assay [5], -0.428%.

Consider `O=C1c2cnc(-c3cc4ccccc4o3)nc2OCCN1CC1CC1`, for which the activity change, negative = inhibition in assay [1] was -19.3%; in assay [2], -17%; in assay [3], -17.7%; in assay [4], -20.8%; in assay [5], -12.1%.

As for `O=C(NCc1noc(-c2cccs2)n1)[C@H]1CNC[C@H](C(=O)N2CCCC2)C1`, the activity change, negative = inhibition is -2.06% in assay [1]; 2.07% in assay [2]; 0.168% in assay [3]; -1.51% in assay [4]; -23.1% in assay [5].

For `Cc1ccc(CN2C(=O)c3cc(-c4cccs4)nn3CC2(C)C(=O)NC2CCCCCC2)cc1` (stereo not drawn), the activity change, negative = inhibition in assay [1] is 0.427%; in assay [2], 0%; in assay [3] it was 3.45%; in assay [4], 2.28%; in assay [5], -2%.

Regarding `COc1ccc(OC)c(CNC(=O)CC2C(=O)NCCN2CC=C(C)C)c1` (stereo not drawn), the activity change, negative = inhibition in assay [1] is -7.74%; in assay [2] it was -8.86%; in assay [3], -5.13%; in assay [4] it was -15.8%; in assay [5] it was 7.54%.
